# Values of other authors, collected in article PMC11006913.
# Some of the results follow.
# Legend:
# Conditions in all cases: PBM; conditions not shown; double strand, one strand shown; scale: upbm affinity estimate (log intensity, higher = more binding, comparable within an allelic series)
# [1] = molecular target: HOXD13 I297V (Homo sapiens) (UniProt P35453)
# [2] = molecular target: HOXD13 I322L (Homo sapiens) (UniProt P35453)
# [3] = molecular target: HOXD13 N298S (Homo sapiens) (UniProt P35453)
# [4] = molecular target: HOXD13 Q325K (Homo sapiens) (UniProt P35453)
# [5] = molecular target: HOXD13 Q325R (Homo sapiens) (UniProt P35453)
# [6] = molecular target: HOXD13 R306W (Homo sapiens) (UniProt P35453)
# [7] = molecular target: HOXD13 S316C (Homo sapiens) (UniProt P35453)
# [8] = molecular target: PITX2 L100Q (Homo sapiens) (UniProt Q99697)
# [9] = molecular target: PITX2 R108H (Homo sapiens) (UniProt Q99697)
# [10] = molecular target: PITX2 R130W (Homo sapiens) (UniProt Q99697)
# [11] = molecular target: PITX2 T114P (Homo sapiens) (UniProt Q99697)
# ISX (Homo sapiens) = ISX (Homo sapiens) (UniProt Q2M1V0)
# ISX R83Q (Homo sapiens) = ISX R83Q (Homo sapiens) (UniProt Q2M1V0)
# [12] = molecular target: PROP1 R112Q (Homo sapiens) (UniProt O75360)
# [13] = molecular target: PROP1 R99Q (Homo sapiens) (UniProt O75360)
# [14] = molecular target: NKX2-5 K183E (Homo sapiens) (UniProt P52952)
# [15] = molecular target: NKX2-5 R161P (Homo sapiens) (UniProt P52952)
# [16] = molecular target: NKX2-5 R190C (Homo sapiens) (UniProt P52952)
sequence,measurement,setting,value
CGGGTGGC [8-mer CGGGTGGC],binding signal,[1],9.22
same,binding signal,[2],9.31
same,binding signal,[3],9.2
same,binding signal,[4],9.35
same,binding signal,[5],9.49
same,binding signal,[6],9.33
same,binding signal,[7],9.25
GCTATAAA [8-mer GCTATAAA],binding signal,[1],12.6
same,binding signal,[2],11.5
same,binding signal,[3],12.8
same,binding signal,[4],11.9
same,binding signal,[5],11.8
same,binding signal,[6],11.9
same,binding signal,[7],12.5
CTTTATTA [8-mer CTTTATTA],binding signal,[1],12.2
same,binding signal,[2],11.3
same,binding signal,[3],12.4
same,binding signal,[4],11
same,binding signal,[5],12
same,binding signal,[6],11.4
same,binding signal,[7],12.2
CCCCCCTC [8-mer CCCCCCTC],binding signal,[1],9.3
same,binding signal,[2],9.03
same,binding signal,[3],9.29
same,binding signal,[4],9.37
same,binding signal,[5],9.24
same,binding signal,[6],9.13
same,binding signal,[7],9.22
CGGCCTCC [8-mer CGGCCTCC],binding signal,[1],9.43
same,binding signal,[2],9.41
same,binding signal,[3],9.35
same,binding signal,[4],9.42
same,binding signal,[5],9.32
same,binding signal,[6],9.45
same,binding signal,[7],9.43
TATAACAA [8-mer TATAACAA],binding signal,[1],11.5
same,binding signal,[2],11.4
same,binding signal,[3],11.8
same,binding signal,[4],11.4
same,binding signal,[5],11.4
same,binding signal,[6],10.9
same,binding signal,[7],11.4
GGCGCCCA [8-mer GGCGCCCA],binding signal,[1],9.53
same,binding signal,[2],9.53
same,binding signal,[3],9.54
same,binding signal,[4],9.28
same,binding signal,[5],9.32
same,binding signal,[6],9.46
same,binding signal,[7],9.56
ACCGTAAA [8-mer ACCGTAAA],binding signal,[1],11.9
same,binding signal,[2],12
same,binding signal,[3],12.1
same,binding signal,[4],10.4
same,binding signal,[5],10.7
same,binding signal,[6],10.8
same,binding signal,[7],11.7
CGGGGCGC [8-mer CGGGGCGC],binding signal,[1],9.33
same,binding signal,[2],9.37
same,binding signal,[3],9.19
same,binding signal,[4],9.32
same,binding signal,[5],9.18
same,binding signal,[6],9.25
same,binding signal,[7],9.22
CTCATAAA [8-mer CTCATAAA],binding signal,[1],12.9
same,binding signal,[2],11.6
same,binding signal,[3],13.3
same,binding signal,[4],10.7
same,binding signal,[5],12.3
same,binding signal,[6],12.2
same,binding signal,[7],12.9
CAATAAAC [8-mer CAATAAAC],binding signal,[1],12.6
same,binding signal,[2],11.1
same,binding signal,[3],12.9
same,binding signal,[4],10.7
same,binding signal,[5],11.6
same,binding signal,[6],11.9
same,binding signal,[7],12.7
GCAGTAAA [8-mer GCAGTAAA],binding signal,[1],12.2
same,binding signal,[2],12.1
same,binding signal,[3],12.4
same,binding signal,[4],10.5
same,binding signal,[5],10.7
same,binding signal,[6],10.9
same,binding signal,[7],12
CTTGGCGC [8-mer CTTGGCGC],binding signal,[1],9.4
same,binding signal,[2],9.32
same,binding signal,[3],9.35
same,binding signal,[4],9.39
same,binding signal,[5],9.28
same,binding signal,[6],9.41
same,binding signal,[7],9.43
CCGTGCCG [8-mer CCGTGCCG],binding signal,[1],9.37
same,binding signal,[2],9.53
same,binding signal,[3],9.49
same,binding signal,[4],9.53
same,binding signal,[5],9.45
same,binding signal,[6],9.54
same,binding signal,[7],9.45
same,binding signal,[8],8.03
same,binding signal,[9],8
same,binding signal,[10],8.03
same,binding signal,[11],8.04
GCCGTAGC [8-mer GCCGTAGC],binding signal,[1],9.59
same,binding signal,[2],9.56
same,binding signal,[3],9.54
same,binding signal,[4],9.29
same,binding signal,[5],9.4
same,binding signal,[6],9.44
same,binding signal,[7],9.53
same,binding signal,[8],8.19
same,binding signal,[9],8.14
same,binding signal,[10],8.13
same,binding signal,[11],8.11
CCCTCTGC [8-mer CCCTCTGC],binding signal,[1],9.28
same,binding signal,[2],9.18
same,binding signal,[3],9.13
same,binding signal,[4],9.63
same,binding signal,[5],9.4
same,binding signal,[6],9.18
same,binding signal,[7],9.19
CATTATGC [8-mer CATTATGC],binding signal,[1],11.2
same,binding signal,[2],10.6
same,binding signal,[3],11.2
same,binding signal,[4],11.4
same,binding signal,[5],11
same,binding signal,[7],10.9
CGCCCCGC [8-mer CGCCCCGC],binding signal,[1],9.44
same,binding signal,[2],9.52
same,binding signal,[3],9.37
same,binding signal,[4],9.57
same,binding signal,[5],9.42
same,binding signal,[6],9.45
same,binding signal,[7],9.46
same,binding signal,[8],8.38
same,binding signal,[9],8.21
same,binding signal,[10],7.77
same,binding signal,[11],8.14
CCGAGCCC [8-mer CCGAGCCC],binding signal,[1],9.5
same,binding signal,[2],9.32
same,binding signal,[3],9.46
same,binding signal,[4],9.43
same,binding signal,[5],9.41
same,binding signal,[6],9.37
same,binding signal,[7],9.46
same,binding signal,ISX (Homo sapiens),9.87
same,binding signal,ISX R83Q (Homo sapiens),9.8
same,binding signal,[12],11
same,binding signal,[13],11
CTGGGGGC [8-mer CTGGGGGC],binding signal,[1],9.16
same,binding signal,[2],9.16
same,binding signal,[3],9.15
same,binding signal,[4],9.44
same,binding signal,[5],9.18
same,binding signal,[6],9.15
same,binding signal,[7],9.16
same,binding signal,[12],10.7
same,binding signal,[13],10.8
CCTCGCCG [8-mer CCTCGCCG],binding signal,[1],9.57
same,binding signal,[2],9.37
same,binding signal,[3],9.44
same,binding signal,[4],9.44
same,binding signal,[5],9.48
same,binding signal,[6],9.37
same,binding signal,[7],9.39
same,binding signal,[14],10.1
same,binding signal,[15],10.2
same,binding signal,[16],10.1
